Measurements as given in article PMC6919601, “Identification of Plasmodium dipeptidyl aminopeptidase allosteric inhibitors by high throughput screening” (PLoS ONE, 2019).
Among all 110,000 compounds or so, about 230 (0.21%) showed an effect of 50% or more. This is one part of the list.
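Note: 30 min substrate incubation versus DMSO and 10 µM JCP410 controls.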

The molecules below were run against DPAP1 (Plasmodium falciparum, UniProt Q8IIJ9) (assay: primary screen, percent inhibition; read by cleavage of a fluorogenic dipeptide substrate; higher = more effect of the substance).
Sequence of DPAP1 (Q8IIJ9 whole entry, looked up): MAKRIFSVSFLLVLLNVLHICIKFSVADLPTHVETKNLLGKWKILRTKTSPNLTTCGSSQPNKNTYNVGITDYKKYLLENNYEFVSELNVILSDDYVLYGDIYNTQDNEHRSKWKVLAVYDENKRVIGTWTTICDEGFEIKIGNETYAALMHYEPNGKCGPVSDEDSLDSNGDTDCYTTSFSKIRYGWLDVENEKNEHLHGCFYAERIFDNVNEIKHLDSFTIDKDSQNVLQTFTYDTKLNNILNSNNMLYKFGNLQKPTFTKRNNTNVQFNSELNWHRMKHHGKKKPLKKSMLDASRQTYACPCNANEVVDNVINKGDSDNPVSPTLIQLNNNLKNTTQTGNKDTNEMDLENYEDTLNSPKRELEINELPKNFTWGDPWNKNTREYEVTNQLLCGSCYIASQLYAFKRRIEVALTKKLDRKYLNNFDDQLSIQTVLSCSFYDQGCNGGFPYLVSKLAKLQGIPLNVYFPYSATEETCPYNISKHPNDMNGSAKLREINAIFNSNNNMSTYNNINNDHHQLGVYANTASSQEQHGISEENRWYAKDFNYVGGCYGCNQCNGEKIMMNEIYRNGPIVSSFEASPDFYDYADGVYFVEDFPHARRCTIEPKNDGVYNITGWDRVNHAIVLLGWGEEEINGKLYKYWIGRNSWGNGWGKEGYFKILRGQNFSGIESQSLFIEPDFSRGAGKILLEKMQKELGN
Set-up: species or system P. falciparum D10 trophozoite lysates; single well
`COc1ccccc1C(=O)Nc1ccccc1C(=O)O` was tested, and the “% Inhibition @ 10 uM” value was -6.71%.
For `Oc1c2nc3ccc(F)cc3c-2ncn1CCN1CCN(Cc2ccccc2)CC1`, the “% Inhibition @ 10 uM” value was -1.74%.
With `COc1ccc(N(C(C)C(=O)Nc2ccc(C(C)C)cc2)S(C)(=O)=O)cc1` (centres unmarked) the “% Inhibition @ 10 uM” value was -1.57%.
For `Cc1ccc(S(=O)(=O)N2CCCC(C(=O)Nc3ccnc4ccccc34)C2)cc1` (centres unmarked), the “% Inhibition @ 10 uM” value was -4.67%.
For `CCOc1ccccc1CN1CCC(O)CC1`, the “% Inhibition @ 10 uM” value was 1.48%.
With `O=C(Cc1ccccc1)Nc1nc2nc3c(c(O)n2n1)CCC3` the “% Inhibition @ 10 uM” value was -6.81%.
For `Cc1c(Br)c(C(=O)N2CCc3ccccc32)nn1C`, the “% Inhibition @ 10 uM” value was 6.17%.
`COc1ccc2[nH]cc(/C=C3\SC(=O)NC3=O)c2c1` was tested, and the “% Inhibition @ 10 uM” value was 0.161%.
With `COCC(C)NCc1ccccc1F` (centres unmarked) the “% Inhibition @ 10 uM” value was 2.78%.
With `O=C(CCC(=O)N1Cc2ccccc2Oc2ncccc21)N1CCC2(CC1)OCCO2` the “% Inhibition @ 10 uM” value was 5.34%.
`Cc1ccc(-c2nnc(SCc3nc(-c4ccccc4)no3)n2C)cc1` was tested, and the “% Inhibition @ 10 uM” value was 2.99%.
For `O=C(NCc1ccco1)c1ccc(COCC(F)(F)C(F)F)cc1`, the “% Inhibition @ 10 uM” value was 1.34%.
With `COC(=O)c1ccc(C(=O)N(CCCN(C)C)c2nc3c(C)cccc3s2)cc1` the “% Inhibition @ 10 uM” value was 6.31%.
In the case of `Cc1nonc1NC(=O)c1oc2ccccc2c1C`, the “% Inhibition @ 10 uM” value was 3.51%.
With `N#CC1=C(N)SC(N)=C(C#N)C1c1cccc(Cl)c1` the “% Inhibition @ 10 uM” value was 19.5%.
With `O=C(c1ccc(Br)o1)N1CCN(c2ccccn2)CC1` the “% Inhibition @ 10 uM” value was -1.35%.
`CC(C)(C)c1ccc(CC2CC2(Cl)Cl)c([N+](=O)[O-])c1` (centres unmarked) was tested, and the “% Inhibition @ 10 uM” value was 4.12%.
For `Cn1c(C(=O)O)c(CC(=O)NCc2cccnc2)c2ccccc21`, the “% Inhibition @ 10 uM” value was 2.84%.
For `COc1cc(NC(=O)c2ccc(F)cc2)c(OC)cc1Cl`, the “% Inhibition @ 10 uM” value was 0.661%.
With `Cc1ccsc1/C=c1\sc2ncnn2c1=O` the “% Inhibition @ 10 uM” value was -3.33%.
In the case of `CC(=O)Nc1c(C(=O)N2CCN(c3ncccn3)CC2)cnn1-c1ccccc1Cl`, the “% Inhibition @ 10 uM” value was 1.17%.
For `CC1(C)CC(NC(=O)c2ccccc2)CC(C)(CNC(=O)c2ccccc2)C1` (centres unmarked), the “% Inhibition @ 10 uM” value was 0.331%.
In the case of `Cc1cccc(CNCc2c(C(=O)O)n(Cc3ccccc3C)c3cc(C)ccc23)c1`, the “% Inhibition @ 10 uM” value was -5.04%.
For `CCCc1cc(=O)oc2cc3occ(C(C)(C)C)c3cc12`, the “% Inhibition @ 10 uM” value was 2.21%.
`CC(C)OCCCNC(=O)CCCN1C(=O)CSc2ncccc21` was tested, and the “% Inhibition @ 10 uM” value was 1.03%.
In the case of `COc1ccc(OC)c(CNC(=O)c2cc(-c3cccs3)nc3ccccc23)c1`, the “% Inhibition @ 10 uM” value was 3.55%.
In the case of `CCCCN(C)C(=O)NCc1noc2ccccc12`, the “% Inhibition @ 10 uM” value was 1.41%.
With `O=C(Nc1ccc(Br)cc1)c1cccc2c1-c1ccccc1C2=O` the “% Inhibition @ 10 uM” value was -0.473%.
With `NC(=O)C1CCN(S(=O)(=O)c2cccc(C(F)(F)F)c2)CC1` the “% Inhibition @ 10 uM” value was 2.62%.
